Assay results reported in publication PMC6919601, “Identification of Plasmodium dipeptidyl aminopeptidase allosteric inhibitors by high throughput screening” (PLoS ONE, 2019).
The whole screen tested about 110,000 compounds, of which about 230 (0.21%) showed an effect of 50% or more. The list shows a part of the results.

molecular target: DPAP1 (Plasmodium falciparum, UniProt Q8IIJ9); assay: primary screen, percent inhibition; read by cleavage of a fluorogenic dipeptide substrate; higher = more effect of the substance; set-up: species or system P. falciparum D10 trophozoite lysates; single well
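Further: 30 min substrate incubation versus DMSO and 10 µM JCP410 controls.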

Sequence of DPAP1 (Q8IIJ9 whole entry, looked up): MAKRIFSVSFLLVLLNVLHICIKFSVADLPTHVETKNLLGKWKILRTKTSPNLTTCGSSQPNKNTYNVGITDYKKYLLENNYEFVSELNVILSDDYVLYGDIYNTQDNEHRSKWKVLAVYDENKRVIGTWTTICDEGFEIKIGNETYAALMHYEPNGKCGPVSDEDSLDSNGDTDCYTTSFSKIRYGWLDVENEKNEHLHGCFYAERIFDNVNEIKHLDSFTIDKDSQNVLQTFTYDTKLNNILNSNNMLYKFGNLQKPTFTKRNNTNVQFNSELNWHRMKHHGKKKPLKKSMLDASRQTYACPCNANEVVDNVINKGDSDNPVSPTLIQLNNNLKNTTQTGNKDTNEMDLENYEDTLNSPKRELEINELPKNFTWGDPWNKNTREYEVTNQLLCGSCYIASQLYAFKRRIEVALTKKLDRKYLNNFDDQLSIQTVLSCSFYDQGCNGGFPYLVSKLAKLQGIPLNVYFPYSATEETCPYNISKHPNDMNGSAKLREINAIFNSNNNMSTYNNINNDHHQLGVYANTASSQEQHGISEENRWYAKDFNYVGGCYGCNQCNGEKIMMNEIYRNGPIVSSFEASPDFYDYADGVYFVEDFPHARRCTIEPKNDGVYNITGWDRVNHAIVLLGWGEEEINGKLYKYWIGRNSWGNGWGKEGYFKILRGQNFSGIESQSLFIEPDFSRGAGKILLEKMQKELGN

Row | Structure (SMILES) | % Inhibition @ 10 uM
1 | COc1cccc(-c2nc(CS(=O)(=O)CC(=O)NCc3cccs3)c(C)o2)c1 | -0.138%
2 | CC1CCCCN1C(=O)c1ccccc1NC(=O)c1ccco1 (centres unmarked) | 2.36%
3 | Clc1ccc(-c2nc3c4c5c(sc4ncn3n2)CCCC5)c(Cl)c1 | -4.32%
4 | O=C(CN1C(=O)c2cccc3cccc1c23)Nc1ccc2ccccc2c1 | 5.54%
5 | CC1(C)OC(=O)C(=Cc2ccc(Br)o2)C(=O)O1 | 4.86%
6 | CCOC(=O)c1cc(-c2ccccc2)sc1NC(=O)C1C2CCC(O2)C1C(=O)O (centres unmarked) | -0.318%
7 | Cc1ccc(S(=O)(=O)CCc2nnc(N)s2)cc1 | -4.43%
8 | CCOC(=O)c1cnc2c(-c3cccc(Br)c3)cnn2c1C | -2.14%
9 | Cn1nc(C(F)(F)F)c2cc(C(=O)N[C@@H](Cc3c(F)cccc3F)C(=O)NCC#N)sc21 | 2.87%
10 | CCN(CC)C(=O)c1cc(-c2ccc(OC)c(OC)c2)on1 | -5.09%
11 | COc1ccc(OC)c(CC2(NC(=O)c3ccccc3)N=C3C=CC=CN3C2=O)c1 (centres unmarked) | -0.85%
12 | Cc1nc2ccccc2cc1C(=O)Nc1ccccc1Cl | -2.74%
13 | Cn1c(=O)c2c(-c3ccccc3Br)n(-c3cccc4cccnc34)cc2n(C)c1=O | 2.41%
14 | C(=C\c1ccccc1)/CN1CCN(Cc2ccoc2)CC1 | -0.828%
15 | Cc1cc(OCc2nc(-c3ccccc3)no2)ccc1Br | 3.79%
16 | CCc1ccc(-n2c(C)nc3cc(C(=O)NC(C)CC)ccc32)cc1 (centres unmarked) | -0.256%
17 | CC(O)CN(CCCc1ccccc1)CC(C)O (centres unmarked) | 5.01%
18 | COc1ccc(/N=c2\sc(C)c(-c3ccc(Cl)cc3)n2CCO)cc1 | 1.02%
19 | CCOc1cc(C2c3c(oc4ccccc4c3=O)C(=O)N2c2nnc(C)s2)ccc1O (centres unmarked) | -2.92%
20 | CCCn1c(CCCNC(=O)c2cccc(C)c2)nc2ccccc21 | 2.83%
21 | Cc1cccc(-c2nnc(NC(=O)C(F)(F)F)s2)c1 | -5.7%
22 | CC1=C(CCN2CCN(C/C=C/c3ccccc3)CC2)C(C)(C)CCC1 | -1.41%
23 | O=C(CCC(=O)Oc1ccccc1F)Nc1ccc(Cl)cc1 | 1.42%
24 | CC1CCN(c2c(NCC3CCC(C(=O)Nc4ccccn4)CC3)c(=O)c2=O)CC1 (centres unmarked) | -0.659%
25 | Cc1ccc(C)n1-c1ccc(SCC(=O)O)cc1 | 4.55%
26 | O=C(CSc1c2c(nc3ccc(Cl)cc13)CCCC2)NCc1ccccn1 | -6.89%

Row | Structure (SMILES) | % Inhibition @ 10 uM
27 | O=C(CN1C(=O)c2ccccc2C1=O)N1CCN(C(=O)c2ccccc2)CC1 | -8.36%
28 | Cc1ccc(S(=O)(=O)N2CCCN(S(=O)(=O)c3ccc(C)cc3C)CC2)c(C)c1 | 13.8%
29 | COc1ccc2c(c1OC)C(=O)OC2c1ccc(O)cc1 (centres unmarked) | -0.687%
30 | COc1ccc(C(=N)NOC(=O)/C=C/c2ccccc2)cc1 | -1.33%
31 | COc1ccc(-c2c(C)nn3c(N4CCC(C(=O)NCC5CCCO5)CC4)cc(C)nc23)cc1OC (centres unmarked) | -3.7%
32 | Cc1cc(NC(=O)CN2CCC3(CC2)OCCO3)nc2c1c(=O)oc1ccccc12 | -0.984%
33 | c1ccc(CN2CCN(C3CCSC3)CC2)cc1 (centres unmarked) | -2.91%
34 | Cc1c(O)c2c3c(cccc3c1O)C(=O)NC2=O | -1.21%
35 | COc1cc(C(=O)NCc2ccccc2F)cc(OC)c1OC | -2.73%
36 | C/N=C1\S/C(=C\c2cc(C)n(C)c2C)C(=O)N1C | 6.3%
37 | O=C(CN1C(=O)N/C(=C\c2cccn2-c2cccc(C(=O)O)c2)C1=O)Nc1ccc(F)cc1 | -2.03%
38 | COc1ccc(CNC(=O)C2CCN(S(C)(=O)=O)CC2)cc1 | -0.992%
39 | Cc1ccc(C2CC(=O)N=C(NC(=O)c3ccccc3)N2)cc1 (centres unmarked) | -7.48%
40 | CC(=O)c1cccc(NC(=O)c2cc(-c3ccc(C)s3)nc3ccccc23)c1 | -3.77%
41 | CCN(CC)c1c(S(=O)(=O)c2ccccc2)cnc2cc(OC)c(OC)cc12 | 0.383%
42 | C=CCn1c(SCc2csc(C)n2)nc2scc(-c3ccc(C)o3)c2c1=O | 3.99%
43 | O=C(NCc1ccc(-n2cccc2)cc1)c1cccs1 | 2.99%
44 | O=C(NCCc1ccccc1)c1ccc(CNc2c(NC3CCCCC3)c(=O)c2=O)cc1 | 1.15%
45 | COc1ccccc1C1CC(=O)NC(C)=C1C(=O)OC(C)C (centres unmarked) | -0.668%
46 | COc1ccc(CC(=O)Nc2ccccc2)cc1OC | -2.98%
47 | Cc1[nH]c2ccccc2c1-c1ccnc2ccccc12 | -2.18%
48 | Cn1c(=O)c2c(ncn2CC(=O)NCc2ccc3c(c2)OCO3)n(C)c1=O | 3.47%
49 | CCN1CCN(C(=O)c2ccc(Cn3c(SCc4ccccc4C)nc4ccncc43)cc2)CC1 | 7.46%
50 | OCCN(CCO)Cc1nc(O)c2c(n1)-c1ccccc1CC21CCCCC1 | -0.641%
51 | C(#CCN1CCN(Cc2ccccc2)CC1)COCCOCc1ccccc1 | -0.0626%
52 | O=C(CCn1c(=O)c2cccn2c2cccnc21)N1CCc2ccccc2C1 | 3.38%

Row | Structure (SMILES) | % Inhibition @ 10 uM
53 | Cc1ccc(NC(=O)CN2C(=O)c3ccccc3S2(=O)=O)c(C)c1 | -2.98%
54 | O=C(O)CCCN(Cc1cccc(Br)c1)S(=O)(=O)c1ccc(Br)cc1 | 7.61%
55 | COc1ccc(C2C=C(c3ccc(Br)cc3)Nc3nc(CCCO)nn32)cc1 (centres unmarked) | 0.205%
56 | CCCCN(C)c1nc(-c2ccco2)c2c(c1C#N)CC(C)(C)OC2 | -3.13%
57 | O=C(O)c1cccc(C(=O)c2cccc(C(=O)O)c2)c1 | -5.2%
58 | O=S(=O)(O)c1cc(-n2nc3ccc4ccccc4c3n2)ccc1/C=C/c1ccccc1 | 44.9%
59 | Cc1ccc2[nH]c(C)c(CCNC(=O)c3c(N)no[n+]3[O-])c2c1 | -2.41%
60 | CCC(Sc1nc2cc(OC)c(OC)cc2c2nc(C)nn12)C(=O)NCc1ccco1 (centres unmarked) | 1.23%
61 | Cc1nnc(NC(=O)CN2C(=O)c3ccccc3S2(=O)=O)s1 | -4.85%
62 | N=C(NOC(=O)C12CC3CC(CC(C3)C1)C2)c1cccnc1 | -10.2%
63 | Cc1ccc(/C=C2\N=C(c3ccccc3Cl)OC2=O)cc1 | 1.25%
64 | Cc1cc(Cl)ccc1OCC(=O)Nc1sc2c(c1C(N)=O)CCCC2 | 3.8%
65 | O=C(O)c1ccc(NC(=O)c2ccc(-c3ccccc3C(F)(F)F)o2)cc1 | 2.08%
66 | CCCNC(=O)C1CCN(c2nnc(-n3c(C)ccc3C)s2)CC1 | -0.522%
67 | Cc1ccc(C2c3c(-c4ccccc4O)n[nH]c3C(=O)N2CC2CCCO2)cc1 (centres unmarked) | -3.12%
68 | Cc1cccnc1NC(=O)C(Cc1ccccc1)N1Cc2ccccc2C1=O (centres unmarked) | -7.33%
69 | CC1CC(C)(C)NC(=S)N1CC(=O)N1CCN(C2CCCCC2)CC1 (centres unmarked) | 2.84%
70 | O=C(COCc1cc(-c2ccc(F)cc2)on1)Nc1ncc(Cl)cn1 | 1.86%
71 | COCC(C)NC(=O)C1CC(c2ccccc2F)=NO1 (centres unmarked) | 1.24%
72 | O=C(O)CCCNC(=O)Cc1ccccc1 | -1.4%
73 | COc1ccc(CNC(=O)CSc2nc(-c3ccc4c(c3)OCO4)ccc2C#N)cc1 | 3.19%
74 | Cc1c(C)c2c(cc(C)c3c(C)coc32)oc1=O | 0.558%
75 | COc1ccc2ncc(S(=O)(=O)c3ccccc3)c(N3CCC(C(N)=O)CC3)c2c1 | 2.53%
76 | COc1ccccc1/C=C/C=c1\sc2nc(-c3cccs3)nn2c1=O | -1.52%
77 | COc1ccc2cc(C#N)c(Cl)nc2c1 | 0.231%
78 | C/C(CCc1oc2ccc(Br)cc2c1-c1ccc(C)o1)=N\NC(N)=S | -3.41%

Row | Structure (SMILES) | % Inhibition @ 10 uM
79 | CCn1c2ccccc2c2cc(NC(C)=O)ccc21 | -6.02%
80 | N#Cc1c(NC(=O)CN2CCOCC2)sc2c1CCCC2 | -1.37%
81 | O=C(CN(Cc1ccccc1F)S(=O)(=O)c1ccc(Cl)cc1)N1CCc2ccccc2C1 | -4.38%
82 | COc1cccc(C2C(C#N)=C(N)Oc3[nH]nc(C)c32)c1 (centres unmarked) | -5.14%
83 | CSc1nc(O)c2c(n1)NC(=O)CC2c1cccc(O)c1 (centres unmarked) | 2.25%
84 | O=C(NCc1ccc(Cl)cc1)c1ccc(CNc2c(N3CCCCC3)c(=O)c2=O)cc1 | 1.15%
85 | COc1ccccc1CNC(=O)CN(c1ccc(C)cc1)S(=O)(=O)c1ccc(C)cc1 | 1.84%
86 | CC(NC(=O)CCCN1C(=O)c2ccccc2C1=O)c1ccc2c(c1)CCCC2 (centres unmarked) | -13.8%
87 | CCCCOc1ccc(N2C(=O)CC(N3CCN(Cc4ccccc4)CC3)C2=O)cc1 (centres unmarked) | -1.79%
88 | COc1ccccc1OCCn1c(S(=O)(=O)O)nc2ccccc21 | -1.69%
89 | O=C(CCC(=O)Nc1ccc(Cl)cc1)Nc1ccc(Cl)cc1 | -5.15%
90 | Cc1c(O)oc2ccccc2c1=O | 0.238%
91 | COc1cccc(C2N3CC4(C)CN2CC(C)(C3)C4)c1O (centres unmarked) | 2.6%
92 | O=C(Nc1ccc2c(c1)OCO2)c1cnccn1 | 3.05%
93 | COc1ccccc1C(=O)Nc1c2c(nn1-c1cccc(C)c1C)CS(=O)(=O)C2 | 0.263%
94 | COc1cccc(-c2cc(C(=O)NCCCn3ccnc3)c3ccccc3n2)c1 | -2.9%
95 | c1ccc(-n2ncnc2-c2ccncc2)cc1 | 4.74%
96 | Cc1nc(CC(=O)NC2CCCC2)cs1 | -4.54%
97 | NC(=O)COc1ccc([N+](=O)[O-])cc1 | 3.25%
98 | CC1=C(C(=O)NCc2cccs2)C2(CCN(Cc3ccccc3)CC2)OC1=O | -1.31%
99 | CCO/C(O)=C1\C(C)=NC(C)=C(C(=O)OC)C1c1ccc(Cl)cc1 (centres unmarked) | -2.91%
100 | CCC(C)NC(=O)CN(c1cccc(Cl)c1Cl)S(=O)(=O)c1ccccc1 (centres unmarked) | 3.21%
101 | c1ccc2[nH]c(Nn3cnnc3)nc2c1 | -11%
